What all share (assay): Primary Screen for Target Class Profiling of Small Molecule Inhibitors of Methyltransferases
The target in test [1] is Glycine N-methyltransferase (Homo sapiens) (UniProt Q14749). The settings on record: purified enzyme, MTase-Glo SAH luminescence; measured here: GNMT inhibition; at 40 µM; stronger effect = lower value. From the text: (§1) PI: Matthew D. Hall Ph.D. and Quinlin M. Hanson Ph.D.
(§2) National Center for Advancing Translational Sciences (NCATS)
(§3) National Institute of Health (NIH), Rockville, MD
(§4) Target class profiling (TCP) is a chemical biology approach amenable to investigating understudied biological targets. TCP is achieved by developing a generalizable assay platform and applying it to screen a curated set of compound libraries against representative members of a target class. Small molecule methyltransferases (SMMTase) are a subclass of methyltransferase that act on metabolites to modulate signaling pathways, metabolize xenobiotics, or balance the available methyl pool. We screened four curated libraries totaling 27,574 unique compounds against the SMMTases nicotinamide N-methyltransferase (NNMT), phenylethanolamine N-methyltransferase (PNMT), histamine N-methyltransferase (HNMT), glycine N-methyltransferase (GNMT), catechol O-methyltransferase (COMT), and guanidinoacetate N-methyltransferase (GAMT). The data generated by this TCP can be leveraged for informed tool molecule development. For example, in the associated publication we identified a chemotype of HNMT-selective inhibitors. Additionally, we identified a putative SMMTase-selective inhibitor with potential as a tool molecule for studying broader methyltransferase biology.
(§5) High-through put screening assays were developed at the National Center for Advancing Translational Science (NCATS) for the enzymes NNMT, PNMT, HNMT, GNMT, COMT, and GAMT. Enzymatic activity was measured as a function of SAM cofactor conversion using the MTase Glo kit (Promega) for all enzymes. All assays were performed in 1536-well format with substrates and SAM concentrations at KM values. Enzyme concentration and assay timing were optimized for 10-20% SAM conversion. Initial screening of 27,574 compounds was done as single-point assays using the highest compound concentration (40 uM). […] These compounds were replated in 11-point dose response and assayed against NNMT, PNMT, HNMT, GNMT, COMT, GAMT, and a counter-assay. The IC50 and efficacy (maximal response) values were determined for each dose-response curve. These values are also accounted for in the area under the curve (AUC) values.
(§6) PROTOCOL TABLE (as described by Inglese J, Shamu CE and Guy RK. 2007)
(§7) SEQUENCE No. (e.g., 1, 2, 3, etc.); […] (e.g., Cells, Incubation, Reagent, etc.); VALUE; DESCRIPTION.
(§8) 1; Reagent; 2 uL; SMMTase Enzyme (2x) in reaction buffer, columns 1- 48.
(§9) 2; Reagent; 1 uL; SAM (4x) in reaction buffer, columns 1-48.
(§10) 3; Controls; 23 nL; DMSO in column 4; sinefungin in DMSO (0 uM - 40 uM) in 7-point 1:2 dilution series (n = 2) in column 2.
(§11) 4; Compounds; 23 nL; Columns 5-48.
(§12) 5; Reagent; 1 uL; Substrate (4x) in reaction buffer, columns 2-48.
(§13) 6; Time; 20-30 min; Incubation.
(§14) 7; Reagent; 1 uL; MTase-Glo reagent (5X), columns 1-48.
(§15) 8; Time; 30 min; Incubation.
(§16) 9; Reagent; 5 uL; MTase-Glo Detection reagent, columns 1-48.
(§17) 10; Time; 30 min; Incubation, luminescence evolution.
(§18) 11; Detection; Luminescence; ViewLux uHTS Microplate Imager (PerkinElmer).
(§19) NOTES (numbers refer to Sequence numbers above)
(§20) 1, 2, 5. White Medium Binding Greiner 1536-well plates (Cat #789175-F, Greiner Bio-One, Monroe, NC); Reaction buffer: 50 mM Tris, pH 8.0, 3 mM MgCl2, 1 mM EDTA, 50 mM NaCl, 1 mM DTT, and 0.1 mg/mL BSA. Evaporation was prevented by covering assay plates with metal lids containing holes to allow gas diffusion.
(§21) 1. Six SMMTase were profiled: HNMT, GNMT, PNMT, COMT, NNMT, GAMT
(§22) 5. The corresponding substrate was used for each enzyme: HNMT - 5.3 uM Histamine; GNMT - >500 uM Glycine; PNMT - 16.2 uM Norephinephrine; COMT - 13.7 uM Norephinephrine; NNMT - 3.8 uM Nicotinamide; GAMT - 2.5 uM Guanidinoacetate.6, 8, 10. Room temperature
(§23) 6. Final reaction conditions: 10 nM COMT, 5 uM SAM, 15 uM norepinephrine, 50 mM Tris, pH 8.0, 3 mM MgCl2, 1 mM EDTA, 50 mM NaCl, 1 mM DTT, and 0.1 mg/mL BSA; refer to tables 2 and S1 for specific timing.
8. […]

Test [2] concerns the target Guanidinoacetate N-methyltransferase (Homo sapiens) (UniProt Q14353). As to conditions: purified enzyme, MTase-Glo SAH luminescence; measured here: GAMT inhibition; at 40 µM; stronger effect = lower value.
Text: as §1, §2, §3, §4, §5, §6, §7, §8, §9, §10, §11, §12, §13, §14, §15, §16, §17, §18, §19, §20, §21, §22, §23
8. […]

Test [3] has as its target Histamine N-methyltransferase (Homo sapiens) (UniProt P50135). The settings on record: purified enzyme, MTase-Glo SAH luminescence; measured here: HNMT inhibition; at 40 µM; stronger effect = lower value.
Text: as §1, §2, §3, §4, §5, §6, §7, §8, §9, §10, §11, §12, §13, §14, §15, §16, §17, §18, §19, §20, §21, §22, §23
8. […]

The target in test [4] is Nicotinamide N-methyltransferase (Homo sapiens) (UniProt P40261). As to conditions: purified enzyme, MTase-Glo SAH luminescence; measured here: NNMT inhibition; at 40 µM; stronger effect = lower value.
Text: as §1, §2, §3, §4, §5, §6, §7, §8, §9, §10, §11, §12, §13, §14, §15, §16, §17, §18, §19, §20, §21, §22, §23
8. […]

For test [5], the target named is Phenylethanolamine N-methyltransferase (Homo sapiens) (UniProt P11086). As to conditions: purified enzyme, MTase-Glo SAH luminescence; measured here: PNMT inhibition; at 40 µM; stronger effect = lower value.
Text: as §1, §2, §3, §4, §5, §6, §7, §8, §9, §10, §11, §12, §13, §14, §15, §16, §17, §18, §19, §20, §21, §22, §23
8. […]

This is one part of the list. The main result of the screen is listed elsewhere. These columns were measured beside it and carry no call.
% is scaled to controls: 0 for no effect and ±100 for the full control effect.

With `COc1ccccc1CN[C@H]1C2CCN(CC2)[C@H]1C(c1ccccc1)c1ccccc1`, the activity change, negative = inhibition in test [1] is 5.47%; in test [2], 14.7%; in test [3], 10.5%; in test [4], -5.23%; in test [5], 5.11%.

Turning to `O=C(Nc1ccc2c(c1)OCCO2)N1Cc2ccccc2-n2cccc2C1c1ccccc1Cl` (stereo not given), the activity change, negative = inhibition in test [1] is -0.663%; in test [2] it was 0%; in test [3] it was -1.79%; in test [4], -5.11%; in test [5], -1.92%.

As to `CCn1c(CO)nnc1C1CC(NC(=O)c2cnn(Cc3ccccc3)c2)C1` (stereo not given), the activity change, negative = inhibition in test [1] is -3.34%; in test [2] it was -5.58%; in test [3] it was 0.574%; in test [4], -9.58%; in test [5] it was 10%.

On to `CCc1ccc(C2c3cccn3-c3ccccc3CN2C(=O)Nc2cccc(C)c2C)cc1` (stereo not given), for which the activity change, negative = inhibition in test [1] came to 11%; in test [2], 0.024%; in test [3], 4.52%; in test [4], 3.12%; in test [5], 6.92%.

As to `CC(C)C1c2cccn2-c2ccccc2CN1C(=O)Nc1ccc(F)cc1` (stereo not given), the activity change, negative = inhibition stood at 1.85% in test [1]; 1.35% in test [2]; 6.8% in test [3]; 6.9% in test [4]; 9.8% in test [5].

Turning to `CC(=O)OC[C@]12C[C@H](OC(=O)CC(C)C)C(C)=C[C@H]1O[C@@H]1[C@H](O)C[C@@]2(C)[C@]12CO2`, the activity change, negative = inhibition in test [1] was 0%; in test [2], 3.49%; in test [3] it was 1.14%; in test [4], -9.51%; in test [5], 6.02%.

`Cc1ccc(Cl)cc1NC(=O)N1Cc2ccccc2-n2cccc2C1c1ccccc1C` (stereo not given): the activity change, negative = inhibition in test [1] is 1.23%; in test [2], 0%; in test [3] it was 3.5%; in test [4], 8.9%; in test [5] it was -3.31%.

With `O=c1[nH]oc2c1CCNC2`, the activity change, negative = inhibition in test [1] was 0.603%; in test [2], 11.6%; in test [3], 3.56%; in test [4] it was -4.63%; in test [5] it was 4.61%.

For the compound `O=C1N[C@@H](Cc2ccccc2)CN2CCCC[C@@H]12`, the activity change, negative = inhibition in test [1] was -2.96%; in test [2], -5.34%; in test [3] it was 0.298%; in test [4], -13.8%; in test [5], -1.45%.

On to `COc1cc(C(O)CN)ccc1O` (stereo not given), for which the activity change, negative = inhibition in test [1] was -2.33%; in test [2], 4.68%; in test [3], -16.8%; in test [4] it was -3.37%; in test [5] it was 10.3%.

In the case of `CC(C)(O)/C=C/C(=O)[C@](C)(O)[C@H]1[C@H](O)C[C@@]2(C)[C@@H]3CC=C4[C@@H](C[C@H](O)C(=O)C4(C)C)[C@]3(C)C(=O)C[C@]12C`, the activity change, negative = inhibition in test [1] is -0.979%; in test [2], -3.07%; in test [3], 7.09%; in test [4], -13.3%; in test [5], 4.94%.

As for `O=C(C[C@@H]1NCCC[C@H]1O)Cn1cnc2ccccc2c1=O`, the activity change, negative = inhibition in test [1] was -1.61%; in test [2] it was -10.4%; in test [3], 9.63%; in test [4] it was -12.5%; in test [5], 3.58%.

`CO[C@@H]1[C@@H](O)[C@@H](O[C@H]2CC[C@]3(C=O)C4CC[C@]5(C)[C@@H](C6=CC(=O)OC6)CC[C@]5(O)[C@@H]4CC[C@H]3C2)O[C@@H](C)[C@H]1O[C@@H]1O[C@H](CO[C@@H]2O[C@H](CO)[C@@H](O)[C@H](O)[C@H]2O)[C@@H](O)[C@H](O)[C@H]1O` (stereo not given in full): the activity change, negative = inhibition was 3.26% in test [1]; 0.497% in test [2]; 10.6% in test [3]; -12.3% in test [4]; -5.21% in test [5].

Turning to `C#C[C@H]1CN2CC[C@H]1C[C@@H]2CNS(=O)(=O)CCC`, the activity change, negative = inhibition in test [1] was -5.99%; in test [2] it was -10.6%; in test [3], -6.5%; in test [4] it was -14.4%; in test [5], -13.8%.

Take `CCOC(=O)Nc1ccc(NCc2ccc(F)cc2)cc1N`: the activity change, negative = inhibition in test [1] is 1.03%; in test [2], 4.76%; in test [3], 10.5%; in test [4] it was -13.6%; in test [5], 0.991%.

For the compound `O=C(NC1CCCC1)N1Cc2ccccc2-n2cccc2C1c1ccccc1Cl` (stereo not given), the activity change, negative = inhibition in test [1] was 7.2%; in test [2], 1.52%; in test [3], 6.94%; in test [4] it was -5.48%; in test [5], 1.49%.

For the compound `CCOc1ccc(C2c3cccn3-c3ccccc3CN2C(=O)Nc2ccc(F)cc2F)cc1` (stereo not given), the activity change, negative = inhibition in test [1] was 2.31%; in test [2] it was 0.634%; in test [3], 3.43%; in test [4], 6.26%; in test [5], 4.75%.

`Cc1ccc(C2c3cccn3-c3ccccc3CN2C(=O)Nc2ccc(Br)cc2)cc1` (stereo not given): the activity change, negative = inhibition in test [1] is 5.93%; in test [2], 0%; in test [3], 4.76%; in test [4] it was 2.94%; in test [5] it was 4.84%.
